From PubChem BioAssay AID2060502 (Molecular Pharmacology Branch, DTP, NCI, 2025)
Some entries of the source have several records that differ or are many. Only these are listed. The source may hold further records. The records of an entry are repeats in other runs, samples, wells, individuals or studies. Marks such as (2×) say how often a value occurs here.

Tested on: 885724-159-R-J1-PDC complex spheroid viability
Assay: Anticancer human tumor 885724-159-R-J1-PDC patient-derived pancreatic adenocarcinoma cell line growth inhibition [GQUAD]
Settings: stronger effect = lower value
From the text: DNA G-quadruplex Stabilizer Agents in Combinations in Complex Spheroids
A high-throughput screen of multi-cell type tumor spheroids was designed to identify active combinations of DNA G-quadruplex stabilizer agents and targeted small molecules. Complex spheroids include a stromal component modeled by human endothelial cells (HUVEC) and fibroblasts modeled by human mesenchymal stem cells (MSCs). The concentration ranges selected for each drug and investigational agent were based upon clinically achievable concentrations if the clinical Cmax of the agent was known.
Compounds. The drugs and investigational agents: pidnarulex (CX-5461; NSC782164), APTO-253 (NSC789042), BRACO-19 (NSC847499), peposertib (NSC802822), ceralasertib (NSC780249), elimusertib (NSC800525), camonsertib (NSC841442), AZD-1390 (NSC803789), olaparib (NSC753686), talazoparib (NSC767125), ART-558 (NSC835418), sotorasib (NSC818433), MRTX-1133 (NSC836407), SN-38 (NSC673596), topotecan (NSC609699), etoposide (NSC141540), doxorubicin (NSC123127), gemcitabine (NSC613327), 5-fluorouracil (NSC19893), paclitaxel (NSC125973), vemurafenib (NSC761431), panobinostat (NSC761190), R-306465 (JNJ-16241199; NSC773264), adavosertib (NSC754352), TP-3654 (NSC805149), carboplatin (NSC241240), KSQ-4279 (NSC840948), and staurosporine (NSC755774) were obtained from the National Cancer Institute (NCI) Developmental Therapeutics Program Chemical Repository (34). The FDA-approved anticancer drug set is available from the NCI Developmental Therapeutics Program. […] The stock solutions were prepared in dimethyl sulfoxide (DMSO, Sigma-Aldrich, St. Louis, MO, cat. D2650) at 800-fold the tested concentration and stored at -70 degrees C prior to their use. All drugs and investigational agents were tested over a range starting from a high concentration at or near the clinical Cmax and decreasing in half-log increments. If the clinical Cmax for an agent had not been determined, the highest concentration tested was 10 microM.
2.3 Cell Culture. All cells were maintained in an incubator at 37 degrees C and 5% CO2 with 95% humidity. The PDC lines were cultured according to standard operating procedures established by the NCI PDMR. All PDCs were thawed and cultured in Matrigel-coated flasks prepared with a working solution of 1X Ham's F-12 nutrient mix, without supplementation (Invitrogen, cat. 11765054), 100 U/mL penicillin-streptomycin (Invitrogen, cat. 15140122), and 2.5% Matrigel (Corning Inc., cat. 354248) for the first three passages. […]
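Also: spheroids exposed to agents for seven days before readout; percent of vehicle control viability where 100% = DMSO wells.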

SMILES	viability, T/C (compound alone 0.0316 µM)	viability, T/C (compound alone 0.1 µM)	viability, T/C (compound alone 3.16 µM)
Cc1cnc(CNC(=O)c2c(=O)c3ccc(N4CCCN(C)CC4)nc3n3c2sc2ccccc23)cn1	108, 114, 89, 115, 96.7, 93, 91.7, 97.9, 113 (2×), 94.2, 106%	109, 110, 115, 95.9, 96.5, 97.3, 108, 100, 105, 121, 96.3, 93.9%	
Cc1[nH]c2ccc(F)cc2c1-c1nc2c3cccnc3c3ncccc3c2[nH]1		95, 88.6, 96.2, 106, 83.8, 100, 92.3, 109, 108, 96.9, 94.4, 107%	42.7, 48.7, 44.2, 46.9, 61.3, 57.3, 67.8, 66.4, 26.9, 30.7, 24.3, 31.7%
